Source: article PMC4336329 (PLoS ONE, 2015)
Among all 310,000 compounds or so, about 2,200 (0.71%) showed an effect of 50% or more. The effect is printed as a negative number. The list shows a part of the results.

Target: human ether-à-go-go-related gene (hERG) potassium channel (human, UniProt Q12809)
Experiment: primary screen, population patch clamp on CHO cells stably expressing hERG

Sequence of human ether-à-go-go-related gene (hERG) potassium channel (Q12809 whole entry, looked up): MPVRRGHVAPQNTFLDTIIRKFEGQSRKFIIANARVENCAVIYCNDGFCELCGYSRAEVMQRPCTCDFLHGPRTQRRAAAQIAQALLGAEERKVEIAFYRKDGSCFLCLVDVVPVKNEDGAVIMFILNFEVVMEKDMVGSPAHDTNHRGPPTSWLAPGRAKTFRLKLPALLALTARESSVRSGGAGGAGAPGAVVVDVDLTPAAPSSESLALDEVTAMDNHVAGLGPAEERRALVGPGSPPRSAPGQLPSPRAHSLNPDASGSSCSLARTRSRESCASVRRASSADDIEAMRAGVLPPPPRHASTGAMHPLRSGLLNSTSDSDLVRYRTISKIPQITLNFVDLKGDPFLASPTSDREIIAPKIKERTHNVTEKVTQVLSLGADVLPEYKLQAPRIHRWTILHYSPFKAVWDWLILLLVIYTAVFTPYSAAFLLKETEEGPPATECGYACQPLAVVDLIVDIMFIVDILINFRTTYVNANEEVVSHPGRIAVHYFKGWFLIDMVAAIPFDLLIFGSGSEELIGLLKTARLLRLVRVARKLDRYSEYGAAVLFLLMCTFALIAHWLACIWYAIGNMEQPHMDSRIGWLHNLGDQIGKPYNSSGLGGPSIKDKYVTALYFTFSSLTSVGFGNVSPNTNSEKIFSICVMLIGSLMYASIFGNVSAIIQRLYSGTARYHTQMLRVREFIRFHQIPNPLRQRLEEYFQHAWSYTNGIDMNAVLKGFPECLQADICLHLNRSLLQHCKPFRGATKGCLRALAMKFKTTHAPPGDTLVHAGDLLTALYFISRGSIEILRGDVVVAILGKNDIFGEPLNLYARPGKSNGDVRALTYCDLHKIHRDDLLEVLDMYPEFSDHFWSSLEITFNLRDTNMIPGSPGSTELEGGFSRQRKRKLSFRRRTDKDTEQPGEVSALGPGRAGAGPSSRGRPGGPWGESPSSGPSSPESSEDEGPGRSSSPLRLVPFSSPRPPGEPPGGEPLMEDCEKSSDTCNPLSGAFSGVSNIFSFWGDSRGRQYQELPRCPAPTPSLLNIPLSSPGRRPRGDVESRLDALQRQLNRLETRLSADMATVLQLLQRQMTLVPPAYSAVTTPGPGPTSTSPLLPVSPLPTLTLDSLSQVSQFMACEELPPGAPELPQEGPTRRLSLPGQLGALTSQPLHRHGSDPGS

Going from `Cc1ccc(S(=O)(=O)/N=C2/NC(=O)/C(=C/c3cc([N+](=O)[O-])ccc3O)S2)cc1` to `CN(C)CCNS(=O)(=O)c1ccc(N2CCN(c3ccc(F)cc3)CC2)c([N+](=O)[O-])c1`, the “hERG current change (%, negative = inhibition) at 1uM” value falls from 19.5% to -1.96%.

Compared with `CNS(=O)(=O)c1cccc(C(=O)NCC(c2cccs2)N(C)C)c1` (centres unmarked), `CS/C(=N\S(=O)(=O)c1cccs1)Nc1ccc(Br)cc1F` is higher in “hERG current change (%, negative = inhibition) at 1uM” value: 6.99% for the first, 7.34% for the second.

Compared with `Cc1ccccc1N=CC=C1OC(C)(C)C(C)(C)O1`, `C=CCOc1ccc2ccccc2c1/C=N/O` is higher in “hERG current change (%, negative = inhibition) at 1uM” value: 6.67% for the first, 12.1% for the second.

Compared with `O=C(O)c1cccnc1SC1CC(=O)N(c2ccc(OC(F)F)cc2)C1=O` (centres unmarked), `Cc1nn(-c2ccc(C(=O)O)cc2)c(N)c1-c1ccccc1` is higher in “hERG current change (%, negative = inhibition) at 1uM” value: 8.32% for the first, 13.6% for the second.

Going from `O=C(Cn1ccc([N+](=O)[O-])n1)NCc1cccnc1` to `COc1ccccc1/C=C/CN1CCNC(=O)C1CC(=O)NCCc1cnccn1` (centres unmarked), the “hERG current change (%, negative = inhibition) at 1uM” value rises from 10.8% to 18%.

Compared with `CCC(=O)N1CCc2cc(S(=O)(=O)CCC(=O)NCCC3=CCCCC3)ccc21`, `O=C(COC(=O)CCc1ccc(S(=O)(=O)N2CCOCC2)cc1)Nc1ncc(C(F)(F)F)cc1Cl` is lower in “hERG current change (%, negative = inhibition) at 1uM” value: 8.45% for the first, 1.27% for the second.

Going from `CCC1=C2CC[C@H]3C(=O)N(c4ccccc4)C(=O)[C@H]3[C@H]2[C@@]2(C)C(=NCC3CC3)OC(=O)N2C1=O` to `O=C1NC(=O)C2(Cc3ccccc3N3CCCC32)C(=O)N1c1ccc(Cl)cc1` (centres unmarked), the “hERG current change (%, negative = inhibition) at 1uM” value falls from 9.99% to -15.8%.

Compared with `O=C(CNC(=O)c1ccccc1F)NCCOc1cccc(Cl)c1Cl`, `Cc1cc2ccccn2c1C(C[N+](=O)[O-])c1c(F)cccc1Cl` (centres unmarked) is higher in “hERG current change (%, negative = inhibition) at 1uM” value: 2.75% for the first, 16.1% for the second.

First: COc1cc(/C=N/NC(N)=S)ccc1OCC(=O)N1CCOCC1
Second: COc1ccc(NC(=S)N2CCCC(CO)C2)c(OC)c1 (centres unmarked)
The “hERG current change (%, negative = inhibition) at 1uM” value of the first is higher: 4.29% for the first, 2.52% for the second.

Going from `CCOC(=O)c1cnc2nc(NCc3ccc(OCc4ccccc4)cc3)[nH]n2c1=O` to `CCOC(=O)CSc1nc2cc(C(=O)N3CCCC3)ccc2c(=O)n1Cc1ccccc1`, the “hERG current change (%, negative = inhibition) at 1uM” value falls from 7.79% to -0.163%.

Compared with `CNC(=S)N/N=C(\C)c1cccc(C(F)(F)F)c1`, `COc1cc(C(=O)Nc2ccc(Cl)c(C(F)(F)F)c2)cc(OC)c1OC` is higher in “hERG current change (%, negative = inhibition) at 1uM” value: 3.31% for the first, 11.2% for the second.

First: O=C(Nc1ccc(Cl)cc1)c1ccco1
Second: CCOC(=O)c1ccc(NC(=S)Nc2ccccc2)cc1
The “hERG current change (%, negative = inhibition) at 1uM” value of the first is higher: 12.2% for the first, 8.18% for the second.

Compared with `Cc1[nH]c2ccccc2c1/C=N/NC(=O)CCC(=O)Nc1ccccc1`, `CC(C)CNC(=O)CC(=O)N/N=C/c1ccc(F)cc1` is lower in “hERG current change (%, negative = inhibition) at 1uM” value: 13.6% for the first, -1.92% for the second.

Compared with `C=CCC1(CC=C)CCCN1C(=O)c1cc(COc2cncc(Cl)c2)on1`, `COc1ccccc1CC(=O)Nc1ccc(-c2noc(COc3ccc(Cl)c(C)c3)n2)cc1` is higher in “hERG current change (%, negative = inhibition) at 1uM” value: 4.15% for the first, 10.4% for the second.

Compared with `CCc1cccc(C)c1NC(=S)N1CC2CC(C1)c1cccc(=O)n1C2` (centres unmarked), `CC(=O)N1CCN(c2ccccc2NC(=O)c2ccc(C#N)cc2F)CC1` is lower in “hERG current change (%, negative = inhibition) at 1uM” value: 14.3% for the first, -7.32% for the second.

Going from `Cn1c(O)c(/C=N/N2CCOCC2)c(=O)n(-c2ccccc2)c1=S` to `CN1C(=O)CSc2ccc(NC(=O)N3CCN(c4ccccn4)CC3)cc21`, the “hERG current change (%, negative = inhibition) at 1uM” value falls from 13.5% to 2.16%.

First: O=C(NCc1ccco1)c1ccc2c(=O)n(Cc3ccco3)c(SCC(=O)N3CCCC3)nc2c1
Second: COc1cc2c(=O)n(Cc3ccco3)c(=O)n(CC(=O)c3ccc(Br)cc3)c2cc1OC
The “hERG current change (%, negative = inhibition) at 1uM” value of the first is lower: -66.9% for the first, 7.71% for the second.

Going from `COCc1nnc(NS(=O)(=O)c2ccc(NC(C)=O)cc2)s1` to `CN(C)C(=O)c1ccc(NC(=O)COC(=O)c2cc3c(s2)CCCCC3)cc1`, the “hERG current change (%, negative = inhibition) at 1uM” value falls from 6.79% to 2.63%.

Going from `COc1ccc(-c2nnc(-c3ccccc3)o2)cc1OC` to `COc1cccc(OC)c1C(=O)Nc1ccc2c3c(cccc13)CC2`, the “hERG current change (%, negative = inhibition) at 1uM” value rises from -1.19% to 0.28%.

Compared with `COCCCNC(=S)NCCCNc1nc2cc(C)cc(C)c2cc1C#N`, `Cc1c(C)n(C)c2ccc(C(=O)NCCCN3CCCC3)cc12` is lower in “hERG current change (%, negative = inhibition) at 1uM” value: 14.1% for the first, -7.58% for the second.

First: O=S(=O)(c1ccccc1)N1CCN(S(=O)(=O)N2CCCCCC2)CC1
Second: FC(F)(F)c1ccccc1CN1CCN(C2CCCCCC2)CC1.O=C(O)C(=O)O
The “hERG current change (%, negative = inhibition) at 1uM” value of the first is higher: 9.54% for the first, 1.98% for the second.

Going from `CCOc1ccc(S(=O)(=O)NCC2CCCO2)c2ccccc12` (centres unmarked) to `CCOc1ccc(OCC)c(NC(=O)CC2Oc3ccc(C)cc3NC2=O)c1` (centres unmarked), the “hERG current change (%, negative = inhibition) at 1uM” value rises from 4.4% to 7.22%.

Compared with `S=C(NCCc1ccccc1)NCC(c1ccco1)N1CCCCC1` (centres unmarked), `O=C(c1ccc(OC2CCN(CCc3ccccc3)CC2)cc1)N1CCCC(O)C1` (centres unmarked) is higher in “hERG current change (%, negative = inhibition) at 1uM” value: 8.71% for the first, 14.4% for the second.

Compared with `COCCNC(=O)CCn1c(=O)oc2ccccc21`, `CCOC(=O)CN/C=C(\C#N)c1ccccc1` is lower in “hERG current change (%, negative = inhibition) at 1uM” value: 9.29% for the first, 6.85% for the second.

First: CCOC(=O)c1c(NC(=O)C2=C(C)NC(=S)NC2c2ccccc2C(F)(F)F)sc(C)c1C (centres unmarked)
Second: Cc1ccc2c(c1)N(C(C)C(=O)NCc1ccc3c(c1)OCO3)C(=O)CO2 (centres unmarked)
The “hERG current change (%, negative = inhibition) at 1uM” value of the first is higher: 8.4% for the first, 3.21% for the second.

Going from `C/C(=N/NS(=O)(=O)c1cc(C)ccc1C)c1ccc2c(c1)OCO2` to `CSc1ccc(C(=O)N2CCc3ccc(NC(=O)c4ccccn4)cc3C2)cc1`, the “hERG current change (%, negative = inhibition) at 1uM” value rises from 11.3% to 14.4%.

Compared with `O=[N+]([O-])C(C1CCS(=O)(=O)C1)C1CCS(=O)(=O)C1` (centres unmarked), `O=C(c1cc(-c2ccc(Cl)cc2)nc2ccccc12)N1CCC1` is lower in “hERG current change (%, negative = inhibition) at 1uM” value: 6.1% for the first, -21.4% for the second.

First: COc1ccc2nc(C)c(C(N)=O)cc2c1
Second: CC(Sc1ncc(C#N)c(N)n1)C(=O)Nc1ccccc1 (centres unmarked)
The “hERG current change (%, negative = inhibition) at 1uM” value of the first is lower: 8.62% for the first, 13.1% for the second.
